Results are given in words; binding and its absence hold for the method and conditions named. Binding seen in cells or lysates may run through a third protein. Some binding calls cover weakened binding; strength is not graded here. For some assays here: Sequences can lack the tags named with a protein.
Assays:
Flag-tagged p107 [1] = molecular target: T1, Flag-tagged p107 (UniProt P28749); assay: co-IP; 293T cells with HIF-1α knockdown, transfected with Flag-tagged genes and HA-Smad3, cultured under hypoxia for 24 h before protein extraction; western blotting
T1 sequence: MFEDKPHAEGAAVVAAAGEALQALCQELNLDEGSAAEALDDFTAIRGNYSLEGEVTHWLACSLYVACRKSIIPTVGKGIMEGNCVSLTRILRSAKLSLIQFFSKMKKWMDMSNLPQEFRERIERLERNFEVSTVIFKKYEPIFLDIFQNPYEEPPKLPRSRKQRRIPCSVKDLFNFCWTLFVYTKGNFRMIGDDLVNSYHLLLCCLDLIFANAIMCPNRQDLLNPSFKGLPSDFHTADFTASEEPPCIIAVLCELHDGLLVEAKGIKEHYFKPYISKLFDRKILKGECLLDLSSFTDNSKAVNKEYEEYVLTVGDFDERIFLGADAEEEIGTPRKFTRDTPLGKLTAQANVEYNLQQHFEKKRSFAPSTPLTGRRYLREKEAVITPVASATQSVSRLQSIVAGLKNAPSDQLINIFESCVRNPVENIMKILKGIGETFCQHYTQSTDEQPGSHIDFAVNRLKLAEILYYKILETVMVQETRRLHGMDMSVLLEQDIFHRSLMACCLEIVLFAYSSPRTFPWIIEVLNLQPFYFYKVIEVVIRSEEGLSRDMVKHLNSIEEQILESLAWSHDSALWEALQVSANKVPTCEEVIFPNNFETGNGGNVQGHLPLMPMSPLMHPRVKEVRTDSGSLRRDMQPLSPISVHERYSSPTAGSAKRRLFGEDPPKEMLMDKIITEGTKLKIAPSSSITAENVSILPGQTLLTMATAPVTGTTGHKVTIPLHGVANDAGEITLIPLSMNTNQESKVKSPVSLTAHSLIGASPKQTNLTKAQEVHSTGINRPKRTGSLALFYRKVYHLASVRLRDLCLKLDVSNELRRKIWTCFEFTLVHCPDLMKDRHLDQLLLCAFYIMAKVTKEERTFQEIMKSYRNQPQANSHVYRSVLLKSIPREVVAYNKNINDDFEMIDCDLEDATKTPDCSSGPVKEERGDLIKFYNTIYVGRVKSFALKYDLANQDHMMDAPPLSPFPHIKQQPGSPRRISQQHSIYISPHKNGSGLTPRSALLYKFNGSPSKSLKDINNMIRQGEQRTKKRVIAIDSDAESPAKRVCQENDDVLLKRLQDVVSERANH

The chains behind the UniProt entries cited, without tags or fusion partners.
UniProt Q15329: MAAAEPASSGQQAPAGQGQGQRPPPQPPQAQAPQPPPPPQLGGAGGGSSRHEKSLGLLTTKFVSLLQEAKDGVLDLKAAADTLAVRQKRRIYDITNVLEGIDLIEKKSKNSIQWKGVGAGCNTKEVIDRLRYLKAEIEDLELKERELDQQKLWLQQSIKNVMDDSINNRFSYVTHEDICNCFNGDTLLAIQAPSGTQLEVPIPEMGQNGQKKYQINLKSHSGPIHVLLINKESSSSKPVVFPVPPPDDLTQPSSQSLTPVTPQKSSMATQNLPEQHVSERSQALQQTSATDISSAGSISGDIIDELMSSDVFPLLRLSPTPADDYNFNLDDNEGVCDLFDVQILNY
UniProt Q16254: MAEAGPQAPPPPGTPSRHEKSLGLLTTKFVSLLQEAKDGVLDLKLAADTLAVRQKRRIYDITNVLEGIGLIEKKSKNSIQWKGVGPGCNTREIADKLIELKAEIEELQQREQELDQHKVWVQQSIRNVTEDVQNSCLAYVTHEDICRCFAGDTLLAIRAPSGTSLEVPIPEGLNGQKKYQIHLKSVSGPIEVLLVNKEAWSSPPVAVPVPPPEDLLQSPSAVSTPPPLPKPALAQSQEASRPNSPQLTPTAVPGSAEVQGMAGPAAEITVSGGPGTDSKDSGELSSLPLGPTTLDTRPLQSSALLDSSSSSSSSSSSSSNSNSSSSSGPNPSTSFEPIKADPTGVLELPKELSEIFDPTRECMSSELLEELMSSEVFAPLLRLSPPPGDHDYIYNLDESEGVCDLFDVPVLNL
UniProt P84022: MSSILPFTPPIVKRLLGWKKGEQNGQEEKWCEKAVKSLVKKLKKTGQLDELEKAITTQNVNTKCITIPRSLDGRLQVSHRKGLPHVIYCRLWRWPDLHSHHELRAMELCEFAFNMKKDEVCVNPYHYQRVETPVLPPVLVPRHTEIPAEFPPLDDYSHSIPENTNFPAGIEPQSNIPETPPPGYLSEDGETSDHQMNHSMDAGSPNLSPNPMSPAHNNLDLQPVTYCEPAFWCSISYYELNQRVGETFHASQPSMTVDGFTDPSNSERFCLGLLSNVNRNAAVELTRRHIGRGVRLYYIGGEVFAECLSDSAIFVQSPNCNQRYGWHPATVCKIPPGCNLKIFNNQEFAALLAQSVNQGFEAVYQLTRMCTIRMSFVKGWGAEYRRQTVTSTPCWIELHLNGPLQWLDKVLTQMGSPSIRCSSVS
UniProt Q16665: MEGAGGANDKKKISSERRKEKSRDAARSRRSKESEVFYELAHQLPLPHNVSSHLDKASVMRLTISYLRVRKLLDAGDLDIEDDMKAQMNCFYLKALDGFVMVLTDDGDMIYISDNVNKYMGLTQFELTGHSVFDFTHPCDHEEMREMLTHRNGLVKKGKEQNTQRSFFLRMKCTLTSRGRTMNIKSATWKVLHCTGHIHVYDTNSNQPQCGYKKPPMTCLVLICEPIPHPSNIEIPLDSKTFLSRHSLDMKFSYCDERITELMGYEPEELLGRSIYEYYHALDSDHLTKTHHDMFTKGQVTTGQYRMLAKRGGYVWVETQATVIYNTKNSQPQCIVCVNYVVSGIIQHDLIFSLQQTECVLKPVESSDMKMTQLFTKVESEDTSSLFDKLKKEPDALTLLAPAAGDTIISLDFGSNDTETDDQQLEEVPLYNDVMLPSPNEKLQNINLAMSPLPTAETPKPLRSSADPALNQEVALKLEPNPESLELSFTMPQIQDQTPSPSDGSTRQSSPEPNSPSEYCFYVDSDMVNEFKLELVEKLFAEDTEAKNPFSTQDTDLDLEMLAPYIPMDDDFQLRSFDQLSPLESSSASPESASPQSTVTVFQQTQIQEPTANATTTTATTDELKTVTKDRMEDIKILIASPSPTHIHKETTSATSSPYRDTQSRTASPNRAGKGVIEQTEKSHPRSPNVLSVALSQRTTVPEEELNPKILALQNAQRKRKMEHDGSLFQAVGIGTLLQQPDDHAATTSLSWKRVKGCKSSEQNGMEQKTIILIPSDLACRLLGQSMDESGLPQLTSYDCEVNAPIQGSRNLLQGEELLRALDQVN

Flag-tagged E2F5 [2] = molecular target: Flag-tagged E2F5 (UniProt Q15329); assay: as above
Flag-tagged E2F4 [3] = molecular target: Flag-tagged E2F4 (UniProt Q16254); assay: as above
Flag-tagged p107 [4] = molecular target: T1, Flag-tagged p107; assay: condition: only under hypoxia, without HIF-1α knockdown; co-IP; 293T cells without HIF-1α knockdown, transfected with Flag-tagged genes and HA-Smad3, cultured under hypoxia for 24 h before protein extraction; western blotting
Flag-tagged E2F5 [5] = molecular target: Flag-tagged E2F5 (UniProt Q15329); assay: as above
Flag-tagged E2F4 [6] = molecular target: Flag-tagged E2F4 (UniProt Q16254); assay: as above
HA-tagged Smad3 = HA-tagged Smad3 (UniProt P84022); assay: co-IP; 293T cells without HIF-1α knockdown, transfected with Flag-tagged genes and HA-Smad3, cultured under hypoxia for 24 h before protein extraction; western blotting
[7] = molecular target: hypoxia-inducible factor (HIF)-1α (human (endogenous in A549 and H1299)) (UniProt Q16665); assay: co-IP; endogenous proteins; A549 and H1299 cell lysates immunoprecipitated with the indicated antibodies, Protein A+G Agarose, 4 °C, washed 5 times with PBS, western blotting

HA-tagged Smad3 (from UniProt P84022 1-425)
binding (Flag-tagged p107 [1]): binds
binding (Flag-tagged E2F5 [2]): binds
binding (Flag-tagged E2F4 [3]): binds
binding (Flag-tagged p107 [4]): no binding
binding (Flag-tagged E2F5 [5]): no binding
binding (Flag-tagged E2F4 [6]): no binding

HIF-1α (endogenous in 293T cells under hypoxia) (from UniProt Q16665 1-826)
binding (HA-tagged Smad3): binds

phosphorylated Smad3 (from UniProt P84022 1-425)
binding [7]: binds
